Reference: PubChem BioAssay AID485344 (National Center for Advancing Translational Sciences (NCATS), 2010)
The campaign covered roughly 340,000 compounds. About 6,900 (2%) were called active. Cut-off read from the data, not from the text of the source: active = inhibition above about 30%; inactive = below that, where a call was filed. The entries are a selection whose mix differs from that of the whole data set. Where no call is shown, the source filed none.

Target: D(2) dopamine receptor (Homo sapiens) (UniProt P14416)
Test: HTS Assay for Allosteric Antagonists of the Human D2 Dopamine Receptor: Primary Screen for Antagonists; note: 0% is about no effect
Details: HEK293 TREx D2 cells, calcium flux, dopamine EC80; at 10 µM; stronger effect = higher value
How it was run: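 In this primary screen, negative modulation is detected by tracking calcium flux after an EC80 dopamine challenge in inducible HEK293 T-REx D2 cells preexposed to test compound for 180 s.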

UniProt P14416, sequence (P14416 whole entry, looked up): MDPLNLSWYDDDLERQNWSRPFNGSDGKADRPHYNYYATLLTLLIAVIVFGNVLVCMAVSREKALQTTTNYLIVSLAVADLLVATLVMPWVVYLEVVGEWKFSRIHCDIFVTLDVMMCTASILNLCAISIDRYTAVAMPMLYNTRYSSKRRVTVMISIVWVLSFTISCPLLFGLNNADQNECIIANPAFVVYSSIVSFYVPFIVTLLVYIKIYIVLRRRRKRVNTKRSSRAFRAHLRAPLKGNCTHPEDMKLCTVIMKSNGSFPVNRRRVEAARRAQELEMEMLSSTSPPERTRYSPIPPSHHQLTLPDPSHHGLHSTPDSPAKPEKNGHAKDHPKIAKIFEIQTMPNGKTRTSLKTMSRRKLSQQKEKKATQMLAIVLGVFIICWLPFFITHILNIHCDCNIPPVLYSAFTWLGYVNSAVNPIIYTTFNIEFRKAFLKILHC

Row | SMILES | inhibition
1 | Cc1cccc(NC(=O)CSc2nc(-c3ccco3)cc(C(F)(F)F)n2)c1C | 11.1%
2 | Cc1cccc(N2CCN(S(=O)(=O)c3csc(C(N)=O)c3)CC2)c1C | 21.6%
3 | Cc1ccc(N(Cc2cccs2)C(=O)c2ccccc2Cl)cc1 | 4.26%
4 | Cc1ccc(-c2nc3ncccc3o2)cc1NC(=O)c1ccc(-c2ccc(Cl)cc2)o1 | -16%
5 | CCOC(=O)c1ccc(NC(=O)c2cc3sccc3n2Cc2ccc(Cl)cc2)cc1 | 1.19%
6 | S=C(NCC1CCCO1)N1CCN(c2nc(-c3ccccc3)cs2)CC1 (stereo unspecified) | active: 66.6%
7 | O=C(NCc1ccccc1)C(=O)NCC(c1cccs1)S(=O)(=O)c1ccccc1 (stereo unspecified) | 22.6%
8 | Cc1ccnc(NC(NC(=O)C(C)C)(C(F)(F)F)C(F)(F)F)c1 | active: 32.5%
9 | CC1(C)CC(=O)c2cc(C(=O)Nc3ccccc3Cl)c(=O)n(-c3ccc(Cl)cc3)c2C1 | 19.2%
10 | COc1ccc2cc3cc(C(=O)NCc4ccccc4OC)oc3nc2c1 | 16.5%
11 | COc1ccc(C2=C(C)C(N3CCC(C(=O)Nc4ccc(F)cc4C)CC3)=NS2(=O)=O)cc1 | 4.04%
12 | Brc1cccc(-c2cnn3c(-c4ccccc4)cc(-c4ccccc4)nc23)c1 | -11.4%
13 | O=C(Nc1ccc(Cl)c(C(F)(F)F)c1)C(Cc1ccccc1)NS(=O)(=O)c1ccc(Br)s1 (stereo unspecified) | 0.155%
14 | CCOc1ccc(NC(=O)C(=O)NCc2ccco2)cc1 | -5.36%
15 | O=C(NCCc1ccc(F)cc1)C(=O)NCC(c1ccco1)S(=O)(=O)c1cccs1 (stereo unspecified) | 6.82%
16 | CCc1ccccc1NC(=O)c1ccc2nc(C(C)C)oc2c1 | 1.42%
17 | Cc1ccc(N(CC(=O)Nc2ccc(Br)cc2)S(=O)(=O)c2cccs2)cc1 | 8.53%
18 | COc1ccc(S(=O)(=O)n2nc(C)c(S(=O)(=O)N3CCC(C)CC3)c2C)cc1OC | 7.37%
19 | O=C(Nc1nnc2n1CCS2)c1ccccc1C(F)(F)F | -12.6%
20 | COc1cc(OC)cc(C(=O)N2CC(=O)Nc3ccc(Cl)cc3C2c2ccccc2)c1 (stereo unspecified) | 1.67%
21 | CC(C)CCNC(=O)CCC(=O)NNc1nc2ccccc2c2nc(-c3ccccc3)nn12 | 18.4%
22 | CC(=O)c1ccc(N2CCN(C(=O)CCCCn3c(=O)[nH]c4ccsc4c3=O)CC2)cc1 | 8.86%
23 | CCOc1ccc(CNS(=O)(=O)c2cc3c(cc2C)NC(=O)CO3)cc1 | -13.5%
24 | Cc1cccc(NC(=O)CSc2nc3ccccc3nc2N2CCOCC2)c1C | 14.6%

Row | SMILES | inhibition
25 | CCSc1nnc(NC(=O)c2cc(=O)c3cc(C)c(C)cc3o2)s1 | 4.99%
26 | O=C(Nc1cccc(C(F)(F)F)c1)c1cc(-c2ccc3c(c2)OCCO3)on1 | 22.2%
27 | Cc1ccc(C)c(SCC(=O)Nc2cc(S(=O)(=O)N3CCOCC3)ccc2C)c1 | active: 53.1%
28 | CCOC(=O)c1c(-c2ccc(OC)cc2)oc2ccc(OCc3ccc(Br)cc3)cc12 | 21.2%
29 | CCc1cnc2c(c1SCC(=O)c1ccc(Cl)cc1)c(=O)n(C)c(=O)n2C | -20.1%
30 | COc1ccc(Cn2c(=O)c3cccnc3n(CC(=O)Nc3c(C)cc(C)cc3C)c2=O)cc1 | 0.695%
31 | CCOC(=O)c1cccc(NS(=O)(=O)c2cc(-c3cnc(C4CC4)o3)ccc2C)c1 | 8.66%
32 | Cc1ccc2oc(-c3cccc(NC(=O)Cc4ccc(Cl)cc4)c3)nc2c1 | -15.1%
33 | Cc1ccc(Sc2c(C)nn(C(=O)c3ccc(Cl)cc3)c2C)cc1 | 24.2%
34 | Cc1c(C(=O)OC(C)C)sc(NC(=O)C2c3ccccc3Oc3ccccc32)c1C(=O)OC(C)C | 3.17%
35 | CCOC(=O)c1c(S(=O)(=O)N2CCCC(C(=O)Nc3ccc(C)cn3)C2)c(C)n(C)c1C (stereo unspecified) | 2.63%
36 | Cc1ccc(-n2c3nc(=O)[nH]c(=O)c-3cc3c(C)nn(-c4ccccc4)c32)cc1C | 19%
37 | CC1(C)CC(=O)c2cc(C#N)c(=O)n(-c3ccc(Cl)cc3)c2C1 | 7.68%
38 | COc1ccc(NC(=O)Cn2cc(C(=O)c3ccccc3)c(=O)c3cc(OC)ccc32)c(OC)c1 | 6.66%
39 | O=C(O)CCC(=O)Nc1sc2c(c1C(=O)Nc1ccccc1)CCCCC2 | 15.6%
40 | Cc1ccsc1CN(C(=O)c1ccc(OCC(C)C)cc1)C1CCS(=O)(=O)C1 (stereo unspecified) | 3.74%
41 | CCc1ccc(NC(=O)c2ccc(F)c(S(=O)(=O)N3CCN(c4ccc(OC)cc4)CC3)c2)cc1 | 5.68%
42 | CC(CNC(=O)CCc1cn(Cc2ccccc2Cl)c2ccccc12)c1ccccc1 (stereo unspecified) | 13%
43 | CCOc1ccccc1NC(=O)C1CCN(S(=O)(=O)c2cccs2)CC1 | -1.55%
44 | COc1cccc(Oc2nc(C)nc3c2oc2ccccc23)c1 | -10.3%
45 | Cc1cc(C)cc(NC(=O)Nc2ccc3nc(N4CCN(C)CC4)cc(C)c3c2)c1 | -8.67%
46 | CCOc1ccc(NC(=O)Cn2ccn3nc(-c4ccc(OC)c(OC)c4)cc3c2=O)cc1 | 9.92%
47 | CCCS(=O)(=O)c1nc(S(=O)(=O)c2ccc(C)cc2)c(NCc2ccccc2Cl)s1 | -9.3%
48 | Cc1nc(N2CCCC2)c2c(C(=O)Nc3cccc(Cl)c3)c(C)oc2n1 | 14%

Row | SMILES | inhibition
49 | O=C1CN2C(=N1)N(Cc1ccccc1)c1ccccc12 | active: 70.7%
50 | COC(=O)c1ccc(NC(=S)NCCC2=CCCCC2)cc1 | active: 54.8%
51 | COc1ccccc1CNC(=O)CCCN1C(=O)CSc2c1c(C)nn2-c1ccccc1 | 1.52%
52 | COc1ccc(-n2nc(C(=O)N3CCN(c4ccccc4OC)CC3)c3c4ccccc4n(C)c3c2=O)cc1Cl | 2.75%
53 | CC(=O)N1CCOc2cc(S(=O)(=O)NCc3ccc(F)cc3)c(C)cc21 | -15.2%
54 | O=C(NC1CCCc2ccccc21)c1ccc2c(c1)sc1nc(-c3ccccc3)cn12 (stereo unspecified) | 6.51%
55 | O=C(Cn1c(=O)n(Cc2ccccc2)c(=O)c2sc3ccccc3c21)Nc1ccccc1F | -14.2%
56 | O=C(Nc1ccc2c(c1)CCCN2C(=O)c1cccs1)c1ccccc1 | -6.31%
57 | CC(C)C1N=C2c3ccccc3N=C(SCC(=O)NCc3ccc(Cl)cc3)N2C1=O (stereo unspecified) | 17.8%
58 | O=C(COc1ccc(F)cc1)NCC(c1ccc(Cl)cc1)N1CCCCC1 (stereo unspecified) | 0.804%
59 | Cc1ccc(CCNC(=O)CCCn2c(=O)c3ccccc3n(Cc3ccccc3C)c2=O)cc1 | -6.92%
60 | Cn1c(=O)c2ccccc2n(CC(=O)NCCC2=CCCCC2)c1=O | active: 40.9%
61 | COc1ccc(CCNC(=O)Cn2c(=O)n(-c3ccccc3)c(=O)c3c(C)c(C)sc32)cc1OC | -2.34%
62 | CCN(CC(=O)Nc1c(F)cccc1F)C(=O)c1ccc(N2CCCC2)c([N+](=O)[O-])c1 | active: 31.1%
63 | CCCCOc1cccc(C(=O)N(Cc2ccc(N(C)C)cc2)C2CCS(=O)(=O)C2)c1 (stereo unspecified) | -9.79%
64 | O=C(Cn1cnc(S(=O)(=O)N2CCCC2)c1)Nc1cccc(Br)c1 | 6.5%
65 | Cc1cc(-c2nc3ncccc3o2)ccc1NC(=O)c1ccccc1Br | 8.78%
66 | CCc1ccc2ncc(C(=O)c3ccc(C)c(C)c3)c(N3CCC(C(N)=O)CC3)c2c1 | 17.5%
67 | O=C(CCN1CCN(c2ccccc2)CC1)NNC(=O)Cc1ccc(Br)cc1 | active: 70.4%
68 | O=C(CCNC(=O)N1CC(=O)Nc2ccccc21)Nc1ccc(Br)cc1F | active: 55.4%
69 | Cc1cccc(N2CCN(Cc3nnc(-c4ccccc4C)o3)CC2C)c1 (stereo unspecified) | -10.5%
70 | Cc1ccc(Cn2c(CNC(=O)CCc3ccccc3)nc3cccnc32)cc1 | 4.76%
71 | COc1ccc(C2=Nc3ccc(F)cc3NC(c3cccc(C(F)(F)F)c3)=N2)cc1 | 7.4%
72 | CCCOc1ccc(C(=O)N(Cc2ccccc2Cl)C2CCS(=O)(=O)C2)cc1 (stereo unspecified) | 1.64%

Row | SMILES | inhibition
73 | COC(=O)c1ccccc1NC(=O)c1cnc(Nc2ccc(OC)cc2)c2ccccc12 | 7.06%
74 | CCOc1cc(Br)cc(C2NC(=O)c3c(sc4c3CCN(C)C4)N2)c1O (stereo unspecified) | -15.8%
75 | COc1ccc(CNC(=O)CSc2ncc3c(n2)-c2ccc(Cl)cc2N(Cc2ccc(F)cc2)S3(=O)=O)cc1OC | 2.46%
76 | COCCCNC(=O)CCCn1c(SCC(=O)c2ccc(F)cc2)nc2c(sc3ccccc32)c1=O | 6.04%
77 | COc1ccc(-n2cnc3cc(C(=O)NC4CCCC4)ccc32)cc1 | -2.27%
78 | COc1ccc(Cn2c(C(=O)O)c(CNCc3ccco3)c3ccc(OC)cc32)cc1 | 7.02%
79 | O=C(CSc1c2c(nc3ccccc13)CCC2)Nc1ccc(F)cc1 | -4.28%
80 | CC(C)(C)c1ccc(C(=O)NCC(c2ccco2)S(=O)(=O)c2ccc(F)cc2)cc1 (stereo unspecified) | -23.6%
81 | CN(C)c1ccc(CNC(=O)c2ccc(Cn3c(=O)c4cccn4c4cccnc43)cc2)cc1 | -6.88%
82 | Cc1ccc(C(=O)N(Cc2sccc2C)C2CCS(=O)(=O)C2)cc1 (stereo unspecified) | 1.87%
83 | Cc1nc(C)c(-c2ccc(SCC(=O)Nc3ccc(Cl)c(Cl)c3)nn2)s1 | 23.4%
84 | COc1ccc(OC)c(-n2nnc3c(sc4nc(C)c(Br)c(C)c43)c2=O)c1 | 3.23%
85 | COc1ccccc1NC(=O)N1c2ccccc2Sc2ccccc21 | -7.67%
86 | CCOc1ccc(C(=O)Nc2cc(NC(=O)c3ccco3)ccc2OC)cc1Br | -10.3%
87 | Cc1ccc(CCNC(=O)CCN2N=C(c3ccc(C)cc3)CCC2=O)cc1 | 19.9%
88 | COc1ccc(-c2nc3cc(NC(=O)Cc4ccc(Cl)cc4)ccc3o2)cc1OC | 6.45%
89 | COc1ccc(CCC(=O)NCc2ccc3c(c2)CCN3C(=O)c2ccc(F)cc2)cc1 | -3.85%
90 | Cc1ccsc1CCN1C(=O)N(c2ccccc2)C(=O)C1CC(=O)Nc1ccc(F)cc1 (stereo unspecified) | -18.7%
91 | Cc1ccc(Cl)cc1Nc1nc2ccccc2c2nncn12 | 6.52%
92 | Cc1cccc(C)c1NC(=O)c1ccc2c(c1)N(Cc1cccc(Cl)c1)C(=O)c1ccccc1S2=O (stereo unspecified) | -13.5%
93 | CCOC(=O)c1ccc(NC(=O)Cn2nc(SC)c(S(=O)(=O)c3ccc(Cl)cc3)c2N)cc1 | -4.73%
94 | CC(C)CC(=O)Nc1nnc(S(=O)(=O)N2CCCCCC2)s1 | -6.34%
95 | CC(=O)N1CCC2(CC1)OC(=O)C(C)=C2C(=O)Nc1cccc(Cl)c1C | -5.98%
96 | Cc1cccc(C(=O)Nc2cc3c(cc2N2CCCCC2)n(C)c(=O)c(=O)n3C)c1 | -1.86%
